Measurements published in PubChem BioAssay AID1745853 (National Center for Advancing Translational Sciences (NCATS), 2022).
Some of the results follow. These are further read-outs of the screen, such as a control signal, another cell line or another target. No call is given for them.

Assays:
Test in all cases: Primary Screen for Target Class Profiling of Small Molecule Inhibitors of Methyltransferases
[1] = molecular target: Glycine N-methyltransferase (Homo sapiens) (UniProt Q14749); details: purified enzyme, MTase-Glo SAH luminescence; measured here: GNMT inhibition; at 40 µM; stronger effect = lower value
How it was run: (§1)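 Each enzyme was assayed with SAM and its substrate. SAH formation detected by MTase-Glo luminescence; single-point 40 uM screen[…].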

[2] = molecular target: Guanidinoacetate N-methyltransferase (Homo sapiens) (UniProt Q14353); details: purified enzyme, MTase-Glo SAH luminescence; measured here: GAMT inhibition; at 40 µM; stronger effect = lower value
How it was run: as §1

[3] = molecular target: Histamine N-methyltransferase (Homo sapiens) (UniProt P50135); details: purified enzyme, MTase-Glo SAH luminescence; measured here: HNMT inhibition; at 40 µM; stronger effect = lower value
How it was run: as §1

[4] = molecular target: Nicotinamide N-methyltransferase (Homo sapiens) (UniProt P40261); details: purified enzyme, MTase-Glo SAH luminescence; measured here: NNMT inhibition; at 40 µM; stronger effect = lower value
How it was run: as §1

[5] = molecular target: Phenylethanolamine N-methyltransferase (Homo sapiens) (UniProt P11086); details: purified enzyme, MTase-Glo SAH luminescence; measured here: PNMT inhibition; at 40 µM; stronger effect = lower value
How it was run: as §1
% is scaled to controls: 0 for no effect and ±100 for the full control effect.

| Compound | activity change, negative = inhibition [1] [%] | activity change, negative = inhibition [2] [%] | activity change, negative = inhibition [3] [%] | activity change, negative = inhibition [4] [%] | activity change, negative = inhibition [5] [%] |
| --- | --- | --- | --- | --- | --- |
| COc1cccc(CN2C(=O)c3ccc(-c4ccccc4)n3CC2(C)C(=O)NC2CCC(C)CC2)c1 (stereo not given) | 0.024 | 4.87 | 0.148 | -2.88 | 0.86 |
| COCCCNCC1COc2ccccc2O1 (stereo not given) | 2.6 | 7.48 | 12.4 | -7.75 | 6.21 |
| CNCCC(Oc1ccccc1OC)c1ccccc1 (stereo not given) | -5.68 | 8.63 | 5.91 | -9.63 | -0.661 |
| OCC1(Cc2ccc(F)cc2F)CCCN(c2cnc3ccccc3n2)C1 (stereo not given) | -16.6 | -4.75 | -5.35 | -15.4 | -12.3 |
| COc1ccc(F)c(CN2CCC3(CCC(=O)N(CCO)C3)CC2)c1 | -1.97 | -5.78 | -1.89 | -6.94 | -4.08 |
| CC(C)(O)/C=C/C1=CC(=O)[C@@](C)(O)C[C@H]1O | -1.09 | -0.317 | 7.93 | -14.7 | -9.63 |
| CC(C)c1ccc(N2C(=O)c3ccccc3CC2(C)C(=O)NCc2ccccc2)cc1 (stereo not given) | 2.57 | 0 | -0.747 | -3.57 | -1.05 |
| COc1ccc(CNC(=O)Cn2ccc3cc(S(=O)(=O)N4CCC(C)CC4)ccc32)c(OC)c1 | 0.357 | 2.95 | -3.94 | -18.4 | -1.18 |
| Cc1ccc(NC(=O)CSc2nnc3n(CCCOC(C)C)c(=O)c4ccccc4n23)cc1 | -1.47 | 1.67 | 3.42 | -1.12 | -1.43 |
| CCOc1ccccc1CNC(=O)C(C)n1ccc2cc(S(=O)(=O)N3CCCCC3)ccc21 (stereo not given) | -5.93 | -0.301 | -3.98 | -13.7 | -3.06 |
| CC(C)CCNC(=O)C1(C)Cn2c(cc3ccccc32)C(=O)N1C1CCN(Cc2ccccc2)CC1 (stereo not given) | -3.8 | 0.439 | -6.61 | -7.96 | -6.78 |
| CC1(C(=O)NCc2ccccc2)Cn2c(ccc2-c2ccco2)C(=O)N1Cc1ccc2c(c1)OCO2 (stereo not given) | -4.85 | 0 | 1.82 | -2.4 | -0.781 |
| Cc1nnc(CNC(=O)C2CCC(=O)N(CCN3CCOCC3)C2)o1 (stereo not given) | -1.35 | -1.46 | 1.72 | -1.02 | -1.38 |
| Cc1ccc(C)c(N2CCN(C(=O)c3cc4n(n3)CC(C)(C(=O)NCCC(C)C)N(C)C4=O)CC2)c1 (stereo not given) | 10.2 | 0.494 | 8.94 | 4.97 | 8.59 |
| COc1ccc(OC)c(NC(=O)N2Cc3c(sc4c3CCCC4)-n3cccc3C2c2ccc(F)cc2)c1 (stereo not given) | -1.98 | 2.96 | 0.815 | -5.96 | 0.327 |
| OC[C@@H]1CN(Cc2cccnc2)C[C@H]1c1ccccn1 | -3.84 | 0.364 | -1.38 | -2.36 | 0.685 |
| CC1CNCCN1S(=O)(=O)c1cccc2cnccc12 (stereo not given) | -11.9 | 4.63 | 3.67 | -7.48 | 0.393 |
| COc1ccc(-c2nc3c(c(=O)[nH]2)CCN(S(=O)(=O)C2CC2)C3)cc1 | -2.16 | -1.51 | 0.452 | -3.02 | -2.12 |
| COc1ccc(CNC(=O)C2(C)Cn3cnc(C(=O)NCc4cccc(OC)c4)c3C(=O)N2C2CC2)cc1 (stereo not given) | 1.33 | 0 | 7.73 | 4.67 | 7.86 |
| O=C(Nc1ccc(N2CCC(NC3Cc4ccccc4C3)CC2)cc1)C1CCCC1 | -7.05 | -9.59 | -5.29 | -14.3 | -9.92 |

| Compound | activity change, negative = inhibition [1] [%] | activity change, negative = inhibition [2] [%] | activity change, negative = inhibition [3] [%] | activity change, negative = inhibition [4] [%] | activity change, negative = inhibition [5] [%] |
| --- | --- | --- | --- | --- | --- |
| CC1(C(=O)NCc2ccccc2Cl)Cn2cnc(C(=O)NCc3ccccc3)c2C(=O)N1C1CC1 (stereo not given) | 3.62 | 2.45 | 13.6 | 7.27 | 9.76 |
| CC1=CC2=C(C)C(=O)C(C)(O)C(O)C2CO1 (stereo not given) | 0 | -1.24 | -1.33 | -13.5 | -1.94 |
| Cc1ccc(CNC(=O)N(C)CC2CCOCC2)cc1 | -1.38 | -1.95 | -0.152 | -6.44 | 0.458 |
| CC1(C(=O)NC2CCCCC2)Cn2c(c(-n3cccc3)c3ccccc32)C(=O)N1Cc1ccco1 (stereo not given) | -1.96 | 4.71 | -7.08 | -7.01 | 0.687 |
| CN1C(=O)c2cc(C(=O)NCCCN3CCCC3)nn2CC1(C)C(=O)NCc1ccc(F)cc1 (stereo not given) | -2.24 | -0.379 | -11 | -0.028 | -3.84 |
| COc1cccc(CNC(=O)Cn2nc3n(CCC(C)C)c(=O)c4ccccc4n3c2=O)c1 | 6.05 | 1.09 | 11.4 | 7.01 | 5.12 |
| CC(C)CCN1C(=O)c2ccc(-c3ccco3)n2CC1(C)C(=O)NC1CCCCCC1 (stereo not given) | -5.2 | 0 | 4.65 | -1.93 | -0.956 |
| Cc1nc2ccc(C(=O)NC(C(=O)O)c3c(C)n[nH]c3C)cc2[nH]1 (stereo not given) | -1.12 | 2.24 | 2.81 | 0.729 | 8.57 |
| CC(C(=O)NCc1cccs1)n1ccc2cc(S(=O)(=O)N3CCCC3)ccc21 (stereo not given) | 1.76 | 0 | 0.885 | -5.37 | -0.268 |
| CCCn1c(=O)c2ccc(C(=O)NC3CCCCC3)cc2n2c(=O)n(CC(=O)NC3CCCC3)nc12 | 8.18 | 2 | 4.28 | 9.31 | 9.18 |
| O=C(N[C@@H]1CCOC[C@H]1OCCO)c1ccc2c(c1)ncn2CCO | -1.31 | -13 | -2.11 | -4.1 | -4.35 |
| COc1ccc(CCN2C(=O)c3cc4ccccc4n3CC2(C)C(=O)NC2CCCC2)c(OC)c1 (stereo not given) | 3.47 | 8.76 | -0.469 | -2.47 | -1.4 |
| CC1(C)Oc2ncnc(N)c2N=C1c1ccc(C2CCC(CC(=O)O)CC2)cc1 (stereo not given) | -5.78 | -0.242 | 6.14 | -19.5 | 3.55 |
| CC1(C(=O)NC2CCCCCC2)Cn2c(ccc2-c2ccco2)C(=O)N1Cc1ccccc1 (stereo not given) | -7.49 | 3.86 | -2.92 | -12.3 | -3.45 |
| CC1(C(=O)NCc2ccccc2)Cn2nc(-c3ccccc3)cc2C(=O)N1CCc1ccccc1 (stereo not given) | -1.67 | 5.64 | -0.434 | -1.86 | -4.92 |
| O=C1C2C=CC=CC2=NC(=S)N1CCN1CCC(=C(c2ccc(F)cc2)c2ccc(F)cc2)CC1 (stereo not given) | -3.16 | 12.7 | 2.4 | -0.126 | 8.37 |
| CCCn1c(=O)c2ccc(Cl)cc2n2c(=O)n(Cc3ccc(C)cc3)nc12 | 6.7 | 0 | 14.3 | 4.44 | 6.8 |
| CCCn1c(=O)c2ccccc2n2c(SCc3cccc(OC)c3)nnc12 | -11.8 | 1.77 | 0.779 | -18 | -3.73 |
| C=C1C(=O)OC2CC(C)C(CCC(C)O)=CCC12 (stereo not given) | 0.62 | 6.09 | 8.88 | -4.31 | 7.59 |
| COc1ccc(CCNc2nc3c(S(=O)(=O)c4ccc(C)cc4)nnn3c3ccccc23)cc1OC | -23.1 | 6.25 | -2 | -2.95 | 1.26 |
